# Data taken from the supplement of paper PMC11417369.
# The list shows a part of the results.
# System: PfSIP2 AP2 domain 1 (GST-tagged)
# Assay: gcPBM binding intensity (ln(normalized median fluorescence intensity)); higher = stronger DNA binding
# Procedure, shortened: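 Plasmodium falciparum DNA-binding domains carrying a GST tag were expressed in E. coli and applied for 1 h, at about 25 μg on average, to an Agilent 4 × 180k array. The array held primer-extended double-stranded 36-bp intergenic genomic probes together with negative controls, and binding took place in 1× PBS with 1% milk, 0.2 mg/ml BSA, 0.5% salmon testes DNA and 0.03% Triton X-100. An Alexa488 anti-GST antibody detected bound protein, and the array was scanned at 488 nm. Binding intensity is taken as the highest Masliner-normalised natural-log median intensity across replicate spots of either probe orientation.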
row,Sequence,gcPBM binding intensity (ln)
1,AGCCACCATATTTACACACACATCAAAATGTATTAA [CACACA_site1816],7.13
2,TATATATATTATAGATGTACTTTCATATATATGTTT [XGTACX_site8189],7.51
3,ATGTATATTTTTAAAAGTACAGAATTTTCATATGAA [XGTACX_site5754],6.85
4,ATATACAATACAAAAACACACACAAAAAAAGAAAAG [CACACA_site8668],7.07
5,ATAGTATCTGGTAGCTGTACGAGTCGTAGAGTCTAA [XGTACX_site2539],6.7
6,TATTTATTTATGTACGCACACAGTTGATATTAATTC [CACACA_site2754],7.41
7,ATATATATATATATATGTACATAATTAATAGCATAT [XGTACX_site1428],9.51
8,GAAAAAGATGCGCATACACACAGATGAATAACAAAA [CACACA_site1628],7.12
9,ATCATATTTATGTTGGTGCATTATACATAAAGTTTA [GTGCAC_site9574],10.2
10,AAAATAAGAAAACAAATGCACACCATTTATATAGAT [CACACA_site1055],7.08
11,TATATAATAAGAAAATATGTGCGTAGTTCAGCAAAA [XGTACX_negctrl_site304],7.1
12,AATTGGATAAACCAATTGGATTATAATACGATATAT [CACACA_negctrl_site275],6.9
13,GAAAAATATATTCTGGTGCATGAATAAAATCATAAA,10.2
14,TATTCATCACTTTTTTGTACTTATGGATAAAATTTT [XGTACX_site3349],7.19
15,AAAGGATATATCCAGAGTACATATTCTGTGTAATAC [XGTACX_site1547],6.92
16,CACAAAAAAAATTATACACACACACCCATATATATA [CACACA_site8255],7.6
17,ATAATTGTTTCTTTCTCCTTTTTATTTCATTTTAAA [CACACA_negctrl_site964],7.05
18,TGTCTTATTTATATTACACACTATATGAAAAAATAT [CACACA_site6807],7.25
19,AAAATAAATAAATACACACACACGAATATTTATATA [CACACA_site6892],6.93
20,ATTATAAAAATATCGTGTACATATTTTTTAAAATAA [XGTACX_site5072],7.12
21,AAAAAAAAAAAAAAAAGTACACATCATTTTATGAAA [XGTACX_site1402],7.84
22,ATTATTTCAATTTTTTTTGTTTTTAAAAAAAAAAAT [CACACA_negctrl_site1387],6.84

row,Sequence,gcPBM binding intensity (ln)
1,GAAAACAAAATGGTAACACACAAATGTAAATAGTAT [CACACA_site2113],6.98
2,AAAAAAAAAAAAAAAAGTACTCTATAAGTAACATTT [XGTACX_site6973],7.59
3,ATTTTTTTGTTATTGTTGAAAAGATGGTTCTTTTTT [CACACA_negctrl_site1346],6.95
4,AATTTCTTATTTTGTACACACAATAAATATTCACAT [CACACA_site1612],7.07
5,TAGTAGTTATCATTAACATGCAATAATATTATTTAA [TGCATGCA_site178],6.71
6,AAGTTAGGATAGATCCAATAATTTTTAGTTTCTCTT [GTGCAC_negctrl_site272],6.55
7,ATGAACATATTTTTTTGTACTTATGAAAATATGTTA [XGTACX_site5996],6.86
8,TAATGTTACACAAACTTTTCATTCTTTTTAATAAAT [TGCATGCA_negctrl_site331],6.68
9,ATATAATTATAAAATAAACACACATATATATTTATA [CACACA_site8039],7.05
10,TTATTTATTTATAATTGTACATTGCAAATGAATTTA [XGTACX_site4083],6.72
11,ATATATATATATATATGTACATAGAGAAGTATCTTT [XGTACX_site4737],9.91
12,AACATTTTAAATTATACACACATTTTGAATATATAT [CACACA_site3470],7.2
13,TGTTGTTGTAATTATTGTACGTTATGCGATTATTAT [XGTACX_site7005],7.2
14,TATACACCCAGACACACACACACACCCAAAAAAAAA [CACACA_site497],7.26
15,AAAATAAACTATAGTACACACTTATTATTATGAAAT [CACACA_site5488],7.06
16,GATATATTTTATATATGTACATACAAGGGTAAATAT [XGTACX_site1202],7.16
17,TCAATTAGACGAAAATGTACATATGTATATATTTTT [XGTACX_site5027],6.84
18,AAAATATGTAGCTACACACACATAAACAAAATAACA [CACACA_site1007],7.01
19,ATTTTATAAAGGAAGTGTACTAATAAATTCAAATTA [XGTACX_site3922],6.91
20,AAGAAAAAATATACTTCACACATTTAATATATAATT [CACACA_site4919],6.79
21,AAAAAAAAAAAAAAATGTACAAATATATACATATAT [XGTACX_site935],7.22
22,AAAAAAGAATTGTGCACACACAAAAAATGTTCATAA [CACACA_site1103],8.77

row,Sequence,gcPBM binding intensity (ln)
1,TCGATGTTGGTAGGATGTACGGTACCGGTAGTATTT [XGTACX_site4214],6.82
2,TTTTTTTTTTTTATTTGTACACATTTTCATATTTTT [XGTACX_site4406],7.07
3,TATATTTACTCTAAGTGTACATATTATTTTATAATA [XGTACX_site2046],7
4,TATATATATATGTGCACACATAAAGATATTATTTTT [CACACA_site3733],9.51
5,TAACACATAAATAAATATATACATATATATAAAATA [CACACA_negctrl_site375],6.85
6,AATATATCATAATGATGTACAAGTAAAACCGTTACA [XGTACX_site4280],6.9
7,ATTCTTTTAAACAGTACACACACACCGATATATATA [CACACA_site8213],7.66
8,AATATATATATATATACATGCATATATTCCTTCCTT [TGCATGCA_site890],7.06
9,TTTGTGCCTATAAATTAACACACAGAAATATATAGA [CACACA_site8175],7.06
10,AAAAACTTATATGATACACACGATAAACAAAATAAA [CACACA_site1039],7.04
11,CAAAAATACATTATAATAATATGCACAATAATAAAT [XGTACX_negctrl_site263],9.12
12,GATCTATATATCATTACACACTTGAATTACTTAAAA [CACACA_site21],7.1
13,ATAAAATAAAATTGGTGTACTTTTGATAAAATAAAA [XGTACX_site4264],7.25
14,TATTTATTTATAAATGCATGTCGCTCTTTTTATTAC [TGCATGCA_site626],6.98
15,ATATATATATATATGTGTACATATAAGATAGAAGAA [XGTACX_site3198],9.38
16,TTATGCATAAAAGGTGGTACTCCGTATATACATTCT [XGTACX_site4354],7.27
17,AACTATAAAAGTTTTACACACTGTTTTTAAATAATG [CACACA_site7686],6.8
18,ATTATTATAGATATAACACACATAATTACATACTTA [CACACA_site6837],7.1
19,AAAAGTAAAAAAAGCACACACGAAAAAAAATAAAAA [CACACA_site5264],6.8
20,TCCATAAATAATTGTAGTACACATACTATGTGACAT [XGTACX_site7268],7.31
21,TATTAAAAAAAAAAATAAAAAAATAAAATAAAATAA [CACACA_negctrl_site580],6.68
22,ATAATATTTTAGAGCAGTACACTTTTATATTTATTG [XGTACX_site5728],6.9

row,Sequence,gcPBM binding intensity (ln)
1,AGAGGAAAAATAAAAGGAAAAAAGAAAATAATATTG [CACACA_negctrl_site852],6.64
2,ATATATTACAATATATGTACTTAATTTGCTTAAATA [XGTACX_site7912],6.95
3,AAAATAAATATTACATGTACATATATATATATATAT [XGTACX_site8492],9.26
4,TAAAACAGAATGAGGAGTACAAAAAGAAGAAAAGGG [XGTACX_site1246],7.48
5,GTAATCCACAAACACACACACATACACATATATATA [CACACA_site2728],7.49
6,ATCATTTTTAATAAATGTACAAGTTTTAAAAAAAAA [XGTACX_site7340],6.82
7,AAAAAAACAACATGCACACGCACACCCAAAAAAAGC [CACACA_site72],7.96
8,GTGTATTTTGTGCGCACACACATGCAAAAAGAAATA [CACACA_site6660],9.54
9,TACACATGTTTAAAATGTACGTTTTATAACACACAC [XGTACX_site8229],7.6
10,GGTAGGTGAATATATACACACATATATTATATATAT [CACACA_site1984],7.74
11,TTTTACAAGTATTGATAAATAAGAAATATATAAAAT [CACACA_negctrl_site529],6.82
12,AAAAAAAATTAAGCATGTATAAATATATATATATAT [CACACA_negctrl_site1540],9.53
13,ATTATATTAATTTATAGTACAATATTTATATATATG [XGTACX_site4668],6.98
14,TATATATTACTTTTTTGTACGAATTTTACAACTACG [XGTACX_site3473],7.04
15,TATTAAAATATTCTCACACACCAAAATATGTATGTA [CACACA_site6565],6.71
16,AAAAAAAAAAAAAAAAAAAGAAAAGAAAATAGGGTT [GTGCAC_negctrl_site421],7.97
17,AGGAGGAACAAACAAAACAATAAAAATTATAATAAA [GTGCAC_negctrl_site206],6.93
18,AAAAGACATTTTTTTTTATAAATACACACGTACGTG [TGCATGCA_negctrl_site281],6.95
19,TTCAAAGACACAATCACACACATACATAAATATACA [CACACA_site687],7.01
20,TTCCAAGAAATAATAGTGCATTATTCATTTTAATAA,10.1
21,AATATACATAACAAGGTGCAAAAAATATTGTTCATA [GTGCAC_site9499],10.9
22,TTATTATTATGATTATTATGATGATTATACAACTGT [TGCATGCA_negctrl_site241],7
